{
  "source": "PubChem BioAssay AID1508624",
  "about": "(National Center for Advancing Translational Sciences (NCATS), 2021)",
  "note": "Out of some 48,000 compounds screened, about 120 (0.25%) were called active. About 4% were inconclusive and are not listed. Calls follow the shape of the dose curve; as a rule, active = well fitted activation curve with a large enough effect; inconclusive = small, poorly fitted or top-dose-only effect, or another doubt; inactive = no such curve, though single readings can be large or run the other way. The list shows a part of the results.",
  "data": [
    {"experiment": "Primary qHTS for Identification of Small Molecule Activators of Huntingtin-Antisense Promoter Activity; also: nearly all actives have a fitted effect of over 55% in size", "conditions": "HEK293 HTT-AS promoter firefly luciferase reporter (activity 0% = vehicle and -100% = no light), 24 h; series mostly up to 57.5 µM; activity change, positive = activation: at the top concentration", "procedure,_shortened": "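HEK293 Fluc reporter, 2,500 cells/well, 24 h pre-culture; cpds up to 57.5 uM final, 24 h 37 degrees C; Dual-Glo, 10 min RT; normalized vehicle = 0%, zero RLU = -100%.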", "values": [
      {"smiles": "O=C(CCCCn1c(=O)c2ccccc2n(Cc2ccc(F)cc2Cl)c1=O)NCCc1ccc(Cl)cc1", "activity change, positive = activation": "inactive: -35%"},
      {"smiles": "COC(=O)c1ccccc1NC(=O)CCCn1c(C)c2cnn(-c3ccccc3)c(=O)c2c1C", "activity change, positive = activation": "inactive: -3.24%"},
      {"smiles": "CC(=O)c1ccc(NC(=O)C2CCN(S(=O)(=O)c3c(C)noc3/C=C/c3ccc(C)cc3)CC2)cc1", "activity change, positive = activation": "inactive: -30.6%"},
      {"smiles": "COc1ccc(CNC(=O)CN2C(=O)COc3ccccc32)c(OC)c1", "activity change, positive = activation": "inactive: 17.4%"},
      {"smiles": "Cc1ccc2nc(NC(=O)CSc3cc(C)[nH]c(=O)n3)sc2c1", "activity change, positive = activation": "inactive: 19.7%"},
      {"smiles": "Oc1ccccc1-c1nc2cnccn2c1Nc1ccc(Cl)cc1", "activity change, positive = activation": "inactive: -34.3%"},
      {"smiles": "Nc1nccc(Oc2ccc(NC(=O)c3c[nH]cc(-c4ccc(F)cc4)c3=O)cc2F)c1Cl", "activity change, positive = activation": "inactive: -40.5%"},
      {"smiles": "COc1ccc(-c2nn3c(-c4ccccc4)nnc3c3ccccc23)cc1", "activity change, positive = activation": "inactive: 7.47%"},
      {"smiles": "CCOc1ccc(C(=O)N2CCc3cc(OC)c(OC)cc3C2COc2ccc3c(C)cc(=O)oc3c2)cc1OCC", "note": "(stereo unspecified)", "activity change, positive = activation": "inactive: -10.7%"},
      {"smiles": "CCOc1ccc(CNC(=O)CCCn2c(=O)c3cccn3c3cccnc32)cc1", "activity change, positive = activation": "inactive: -7.21%"},
      {"smiles": "Cc1cccc(N2CCN(C(=O)Cn3c(C)c4cnn(-c5ccccc5)c(=O)c4c3C)CC2)c1C", "activity change, positive = activation": "inactive: -49%"},
      {"smiles": "CCCCn1c(SCc2ccccc2C)nc2ccsc2c1=O", "activity change, positive = activation": "inactive: -2.91%"},
      {"smiles": "COc1ccc(CNC(=O)C(=O)NCC(c2ccco2)S(=O)(=O)c2cccs2)cc1", "note": "(stereo unspecified)", "activity change, positive = activation": "inactive: -1.57%"},
      {"smiles": "Cc1nnc(SCc2cc(=O)c3cc(F)ccc3[nH]2)n1C", "activity change, positive = activation": "inactive: -4.43%"},
      {"smiles": "Cc1ccc(NS(=O)(=O)c2ccc3c(c2)CCN3C(=O)C2CC2)c(C)c1", "activity change, positive = activation": "inactive: -26.1%"},
      {"smiles": "Cc1ccc(NC(=O)c2ccc3c(O)c(S(=O)(=O)c4ccc(Cl)cc4)c(=O)[nH]c3c2)cc1", "activity change, positive = activation": "inactive: -2.53%"},
      {"smiles": "CCOC(=O)C1CCCN(C(=O)Cn2ncc3c(C)n(Cc4ccc(Cl)cc4)c(C)c3c2=O)C1", "note": "(stereo unspecified)", "activity change, positive = activation": "inactive: -24%"},
      {"smiles": "C=C(C)Cn1c(SCC(=O)c2ccc(Br)cc2)nc2sc3c(c2c1=O)CCCC3", "activity change, positive = activation": "inactive: -4.26%"},
      {"smiles": "CC1=C(C#N)C(NC(=O)c2ccccc2)(C(F)(F)F)C(=O)N1", "note": "(stereo unspecified)", "activity change, positive = activation": "inactive: -11.6%"},
      {"smiles": "Cc1ccc(S(=O)(=O)c2nc(-c3cccs3)oc2SCc2ccc(F)cc2)cc1", "activity change, positive = activation": "inactive: -4.28%"},
      {"smiles": "CC(C)c1ccccc1NC(=O)C(Cc1c[nH]c2ccccc12)NC(=O)OC(C)(C)C", "note": "(stereo unspecified)", "activity change, positive = activation": "inactive: -24.8%"},
      {"smiles": "COc1ccccc1CNC(=O)Cc1c(C)c2cc3c(C)coc3c(C)c2oc1=O", "activity change, positive = activation": "inactive: -6.95%"},
      {"smiles": "CCOC(=O)c1ccc(Nc2c(-c3ccc(OC)cc3)nc3nc[nH]n23)cc1", "activity change, positive = activation": "inactive: -45.6%"},
      {"smiles": "CCOc1ccc(CCNC(=O)C2Cc3ccccc3N2C(=O)CC)cc1", "note": "(stereo unspecified)", "activity change, positive = activation": "inactive: -5.5%"},
      {"smiles": "Cc1ccccc1Cn1c(=O)n(Cc2ccco2)c(=O)c2sc3ccccc3c21", "activity change, positive = activation": "inactive: -19.4%"},
      {"smiles": "COc1ccc(CNC(=O)CC(C)CC2=NS(=O)(=O)c3ccccc3N2)cc1", "note": "(stereo unspecified)", "activity change, positive = activation": "inactive: -22.9%"},
      {"smiles": "CCOc1ccc(S(=O)(=O)Nc2ccc3c(c2)CCCN3C(=O)c2cccs2)cc1", "activity change, positive = activation": "inactive: -22%"},
      {"smiles": "CCC(=O)N1CCc2cc(CNC(=O)Nc3cc(OC)c(OC)c(OC)c3)ccc21", "activity change, positive = activation": "inactive: -5.53%"},
      {"smiles": "CCN(CC)C(=O)C1=C(C)Nc2nc3ccccc3n2C1c1ccccc1F", "note": "(stereo unspecified)", "activity change, positive = activation": "inactive: -6.42%"},
      {"smiles": "CCOC(=O)c1cc2c(=O)n3ccccc3nc2n(CCCOC)c1=NC(=O)c1c(-c2c(F)cccc2Cl)noc1C", "activity change, positive = activation": "inactive: -29.9%"},
      {"smiles": "O=C(Cc1ccc(NC(=O)N2CCCCc3ccccc32)cc1)NCc1cccc(Br)c1", "activity change, positive = activation": "inactive: -9.05%"},
      {"smiles": "COc1ccc(Cl)cc1NC(=O)Cn1c(=O)n(-c2ccc(C)cc2)c(=O)c2ccc(C(=O)NCc3ccccc3Cl)cc21", "activity change, positive = activation": "inactive: -25.1%"},
      {"smiles": "CSc1ccc(-c2nc3cccc(C)n3c2Nc2ccc3c(c2)OCO3)cc1", "activity change, positive = activation": "inactive: 4.89%"},
      {"smiles": "COc1ccc(-c2nnc(SC(C)C(=O)O)o2)cc1", "note": "(stereo unspecified)", "activity change, positive = activation": "inactive: -11.9%"},
      {"smiles": "O=C(CN1C(=O)CSc2ccc(S(=O)(=O)N3CCCC3)cc21)NCc1ccccc1Cl", "activity change, positive = activation": "inactive: -21.2%"},
      {"smiles": "CC(=O)N1CCCc2cc(S(=O)(=O)N3CCCC(C(=O)NC(C)C)C3)ccc21", "note": "(stereo unspecified)", "activity change, positive = activation": "inactive: -20.2%"},
      {"smiles": "Cc1ccc(OCC(=O)Nc2c(C(=O)c3ccc(Cl)cc3)oc3ccccc23)cc1C", "activity change, positive = activation": "inactive: -11.7%"},
      {"smiles": "CCCCNC(=O)CCc1c(C)nc2cc(-c3ccccc3)nn2c1C", "activity change, positive = activation": "inactive: -69.6%"},
      {"smiles": "COc1ccc(N2C(=O)C(CC(=O)Nc3ccccc3)N(CCC3=CCCCC3)C2=O)cc1", "note": "(stereo unspecified)", "activity change, positive = activation": "inactive: -13.2%"},
      {"smiles": "Cc1[nH]c2ccccc2c1C1(O)C(=O)N(Cc2ccccc2)c2ccc(Cl)cc21", "note": "(stereo unspecified)", "activity change, positive = activation": "inactive: -23.1%"},
      {"smiles": "Cc1cc(-c2ccc(S(=O)(=O)Nc3ccc(Cl)cc3)cc2)on1", "activity change, positive = activation": "inactive: -32.2%"},
      {"smiles": "CCOc1ccc(C2c3c(oc4ccc(C)cc4c3=O)C(=O)N2CCCN(C)C)cc1OC", "note": "(stereo unspecified)", "activity change, positive = activation": "inactive: -2.42%"},
      {"smiles": "CO[C@H]1C=CO[C@@]2(C)Oc3c(C)c(O)c4c(O)c(c(/C=N/N5CCN(C)CC5)c(O)c4c3C2=O)NC(=O)/C(C)=C\\C=C[C@H](C)[C@H](O)[C@@H](C)[C@@H](O)[C@@H](C)[C@H](OC(C)=O)[C@@H]1C", "activity change, positive = activation": "inactive: -2.28%"},
      {"smiles": "CC(C)Oc1ccc(CNC(=O)c2sc3ncccc3c2-n2cccc2)cc1", "activity change, positive = activation": "inactive: -26%"},
      {"smiles": "COc1ccc(-n2nc(C(=O)Nc3ccc(C(C)=O)cc3)nc2-c2ccccc2)cc1", "activity change, positive = activation": "inactive: -13.6%"},
      {"smiles": "CCc1ccc2occ(CC(=O)Nc3ccc(OC)c(Cl)c3)c2c1", "activity change, positive = activation": "inactive: -3.67%"}
    ]}
  ]
}
